# Hit rate of the full screen: of about 280,000 compounds, about 100 (0.036%) were called active. Inconclusive means that the source gave no clear call. Such entries were picked first, then a sample of the others. Calls come from the whole dose curve; as a rule, active = well fitted inhibition curve with a large enough effect in the signal ratio, with a control signal flat (not every such curve was filed as active); inconclusive = small, poorly fitted or top-dose-only effect, or effect the other way, or a change in a side signal; inactive = no such curve, though single readings can be large or run the other way; the % refers to the signal ratio. Where the call is inconclusive, the potency comes from a doubtful curve fit. A note “side channel” means that the fit belongs to a control or component signal, not to the main read-out.
# Target: Muscleblind-like protein 1 (Homo sapiens) (UniProt Q9NR56)
# UniProt Q9NR56, sequence (Q9NR56 whole entry, looked up): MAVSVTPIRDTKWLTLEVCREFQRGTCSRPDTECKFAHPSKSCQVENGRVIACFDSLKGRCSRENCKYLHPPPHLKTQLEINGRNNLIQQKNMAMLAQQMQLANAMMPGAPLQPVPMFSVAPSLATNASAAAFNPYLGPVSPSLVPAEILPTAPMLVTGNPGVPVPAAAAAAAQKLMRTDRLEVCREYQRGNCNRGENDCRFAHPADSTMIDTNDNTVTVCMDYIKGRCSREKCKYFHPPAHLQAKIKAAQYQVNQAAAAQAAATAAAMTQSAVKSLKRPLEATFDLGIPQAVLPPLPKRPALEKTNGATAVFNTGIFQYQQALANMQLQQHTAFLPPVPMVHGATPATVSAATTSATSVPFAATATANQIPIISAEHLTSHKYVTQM
# Assay: qHTS Assay for Inhibitors of MBNL1-poly(CUG) RNA binding
# Settings: TR-FRET MBNL1-His/biotin-(CUG)12 binding, 665/545 ratio; activity change, negative = inhibition: at 57.5 µM (top of the series)
# How it was run: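 Inhibition of protein-RNA binding appears as loss of TR-FRET between terbium anti-His antibody on MBNL1-His and streptavidin-XL665 on biotin-(CUG)12. Activity is normalized to buffer-only and uninhibited-complex controls.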
# % is set by controls: 0 for no effect and ±100 for the full control effect; potency is the fitted concentration of half-maximal effect; tags give direction and shape of the fitted curve or compound fluorescence and quenching.
SMILES,"activity change, negative = inhibition",Potency
O=C(c1ccc(COc2ccc(Cl)cc2Cl)o1)N1CCCC1,inactive: -1.63%,–
NS(=O)(=O)c1ccc(Sc2nc3ccccc3s2)c([N+](=O)[O-])c1,–,"inconclusive: 14.1 µM [quencher, side channel, partial curve]"
CCCOC(=O)CN1C(=O)c2ccccc2C1=O,–,"inconclusive: 31.6 µM [quencher, side channel, single point]"
CCOC(=O)/C(C#N)=C/c1cn(CCC(=O)O)nc1-c1ccc(OC)cc1,–,"inconclusive: 22.4 µM [quencher, partial curve]"
COc1ccc(NC(=O)CSc2nc3c(c(=O)n2-c2ccc(F)cc2)SCC3)cc1,–,"inconclusive: 1.26 µM [quencher, side channel, full curve]"
Cc1csc(/C(=N/OC(=O)c2ccco2)C(N)=O)n1,–,"inconclusive: 31.6 µM [quencher, side channel, partial curve]"
COc1ccc(/C=N/Nc2nc(N)cc(Cl)n2)cc1OC,–,"inconclusive: 14.1 µM [quencher, side channel, single point]"
Cc1ccc(C)c(NC(=S)N2CCN(c3cccc(C(F)(F)F)c3)CC2)c1,inactive: -5.28%,–
CNC(=S)N(Cc1cccs1)Cc1cc2cc(OC)ccc2[nH]c1=O,–,"inconclusive: 39.8 µM [fluorescent, side channel, single point]"
COC(=O)c1cccc(NC(=O)c2cccc([N+](=O)[O-])c2)c1,–,"inconclusive: 25.1 µM [quencher, side channel, partial curve]"
CCOC(=O)c1sc(=S)n(-c2ccccc2)c1SC,–,"inconclusive: 15.8 µM [quencher, side channel, partial curve]"
COc1cc(OC)c(C#N)c(S(=O)(=O)Cc2ccccc2)c1,inactive: 0.321%,–
CCCCCCCC(=O)NNC(=O)c1ccc([N+](=O)[O-])cc1,–,"inconclusive: 14.1 µM [quencher, side channel, partial curve]"
CCOc1ccc(C(=O)c2cc([N+](=O)[O-])ccc2Cl)cc1,–,"inconclusive: 17.8 µM [quencher, side channel, partial curve]"
O=C(CC1NCCNC1=O)Nc1ccc([N+](=O)[O-])cc1 (stereo not drawn),–,"inconclusive: 14.1 µM [quencher, side channel, partial curve]"
O=C(NCCNC(=O)c1ccc([N+](=O)[O-])cc1)c1ccncc1,–,"inconclusive: 14.1 µM [quencher, side channel, partial curve]"
Cc1cc(C)c(S(=O)(=O)Nc2nnc(C3CCCCC3)s2)c(C)c1,inactive: -8.2%,–
Cc1ccc(-n2nc3c(=O)n(CC(=O)NCCCc4ccccc4)nc(C)c3c2C)cc1,inactive: 0.809%,–
CCN1CCN(C(=O)c2cc3nc(-c4ccccc4)cc(C(F)(F)F)n3n2)CC1,–,"inconclusive: 39.8 µM [quencher, side channel, single point]"
Nc1ncnc(N)c1N=Nc1ccccc1,–,"inconclusive: 12.6 µM [quencher, side channel, partial curve]"
CCOC(=O)C1C(=O)CC(C)(O)C(C(=O)OCC)C1c1ccc(Br)o1 (stereo not drawn),inactive: -9.99%,–

SMILES,"activity change, negative = inhibition",Potency
COc1cccc(-c2c(C(=O)N/N=C/c3ccco3)nnn2-c2nonc2N)c1,–,"inconclusive: 28.2 µM [quencher, side channel, partial curve]"
N=C(N)SCc1ccc(O)c([N+](=O)[O-])c1,–,"inconclusive: 15.8 µM [quencher, side channel, partial curve]"
COCC(C)n1c(C)cc(C(=O)COC(=O)c2c(NC(C)=O)sc(C)c2C)c1C (stereo not drawn),inactive: -5.55%,–
Cc1ncccc1C(=O)N1CCCC(C(=O)c2ccc3c4c(cccc24)CC3)C1 (stereo not drawn),–,"inconclusive: 39.8 µM [quencher, side channel, single point]"
O=C(NC1CCN(Cc2ccccc2)CC1)c1ccc(N2CC3CC(C2)c2cccc(=O)n2C3)c([N+](=O)[O-])c1 (stereo not drawn),–,"inconclusive: 25.1 µM [quencher, side channel, partial curve]"
CCOc1cc(-c2nc3n(c(=O)c2C#N)CCS3)ccc1O,–,"inconclusive: 25.1 µM [quencher, side channel, partial curve]"
CCn1cc(/C=C(\NC(=O)c2ccc(OC)c(OC)c2)C(=O)N2CCN(C)CC2)c2ccccc21,–,"inconclusive: 22.4 µM [quencher, side channel, single point]"
C(=Nc1cccc2c(N=Cc3ccco3)cccc12)c1ccco1,–,"inconclusive: 39.8 µM [quencher, side channel, single point]"
CCOc1ccccc1N(C(=O)c1snc(C(N)=O)c1N)C(C(=O)NC1CCCC1)c1ccco1 (stereo not drawn),–,"inconclusive: 22.4 µM [quencher, side channel, partial curve, poor fit]"
CCCS(=O)(=O)NCc1ccc2c(c1)cc(C)n2C,–,"inconclusive: 31.6 µM [quencher, side channel, single point]"
CC(NC(=O)CCCCCCN1C(=O)c2ccccc2C1=O)c1ccc2c(c1)CCCC2 (stereo not drawn),inactive: 5.51%,–
Cn1c(SCc2cc(=O)n3cc(Br)ccc3n2)nnc1C1COc2ccccc2O1 (stereo not drawn),–,"inconclusive: 31.6 µM [quencher, partial curve]"
Cc1noc(C)c1COC(=O)Cc1ccc(Cl)c(Cl)c1,inactive: 0.985%,–
CCc1ccc(C(C)NC(=O)c2cc(C)oc2C)cc1 (stereo not drawn),inactive: 4.13%,–
O=C(Nc1ccc(S(=O)(=O)Nc2nccs2)cc1)c1nn(-c2ccc(F)cc2)ccc1=O,–,"inconclusive: 14.1 µM [quencher, side channel, partial curve]"
CC(C)Cn1c(C(C)NC(=O)Cc2ccccc2)nc2ccccc21 (stereo not drawn),–,"inconclusive: 3.16 µM [quencher, side channel, partial curve]"
C=CCNC(=S)N1CCN(CCN=Cc2c(C)[nH]n(-c3ccc([N+](=O)[O-])cc3)c2=O)CC1,–,"inconclusive: 17.8 µM [quencher, side channel, partial curve]"
CNS(=O)(=O)c1cn(CC(=O)NCc2cccc(OC)c2)cc1S(=O)(=O)NC,inactive: -2.28%,–
NC(=O)CC(NC(=O)Cc1cccc2ccccc12)c1ccc(NCc2ccccn2)c([N+](=O)[O-])c1 (stereo not drawn),–,"inconclusive: 28.2 µM [quencher, single point]"
CC(OC(=O)c1ccc2noc(-c3ccccc3)c2c1)C(N)=O (stereo not drawn),–,"inconclusive: 14.1 µM [quencher, partial curve]"
CCC1=NN(C(=O)c2cccc([N+](=O)[O-])c2)C(O)(c2ccc(C)cc2)C1 (stereo not drawn),–,"inconclusive: 15.8 µM [quencher, side channel, partial curve]"

SMILES,"activity change, negative = inhibition",Potency
COc1ccccc1CC(=O)Nc1cc(C)ccn1,inactive: -11.2%,–
CCCCOc1ccc(C(=O)N/C(=C\c2ccc(OC)cc2)C(=O)OCc2ccco2)cc1,inactive: -3.8%,–
O=C(/C=C/c1cccc([N+](=O)[O-])c1)NCc1ccccc1,–,"inconclusive: 15.8 µM [quencher, side channel, partial curve]"
O=[N+]([O-])c1c(NCc2ccco2)ccc2nonc12,–,"inconclusive: 8.91 µM [quencher, side channel, partial curve]"
CC(CCc1ccccc1)NC(=O)Cc1ccc([N+](=O)[O-])cc1 (stereo not drawn),–,"inconclusive: 31.6 µM [quencher, side channel, single point]"
O=C(O)c1ccc(NC2=C(n3nnc4ccccc43)C(=O)c3ccccc3C2=O)cc1,–,"inconclusive: 15.8 µM [quencher, side channel, partial curve]"
CN(C)c1ccc(/C=N/N2CCN(c3ccccn3)CC2)cc1,inactive: -3.03%,–
Cc1ccc(N=Cc2ccc[nH]2)c(O)c1,inactive: 10.9%,–
Cn1c(=O)c(C(=O)c2ccccc2)nc2ccccc21,–,"inconclusive: 28.2 µM [quencher, side channel, partial curve]"
Cn1c(SCc2nc(-c3ccccc3)no2)nnc1-c1cccs1,–,"inconclusive: 1.78 µM [quencher, side channel, full curve]"
Cc1cc(OCCCn2ccnc2)cc(C(C)C)c1,inactive: 0.349%,–
CCOCCCNCc1ccc(OC)cc1,–,"inconclusive: 4.47 µM [quencher, side channel, single point]"
COc1cc(OC)cc(C(=O)Nc2ccc([N+](=O)[O-])cn2)c1,–,"inconclusive: 5.01 µM [quencher, side channel, single point]"
CC1Cc2ccccc2N1c1ncnc2c1nnn2Cc1ccccc1Cl (stereo not drawn),–,"inconclusive: 39.8 µM [quencher, side channel, single point]"
CCOC(=O)c1ccc(NC(=O)CN2C(=O)CSC(C)C2=O)cc1 (stereo not drawn),–,"inconclusive: 17.8 µM [quencher, side channel, single point]"
COc1ccc(-c2c(C)c3cc(O)ccc3oc2=O)cc1OC,–,"inconclusive: 11.2 µM [quencher, side channel, partial curve]"
CC(C)C(=O)N1CCN(CCN2C(=O)c3cccc4cccc(c34)C2=O)CC1,–,"inconclusive: 12.6 µM [quencher, side channel, partial curve]"
CC(=O)Nc1ccc(C(=O)NNC(=O)CCc2ccccc2)cc1,inactive: -3.71%,–
Cc1cc(NC(=O)CSc2nnc(C)o2)no1,inactive: 0.605%,–
COc1ccc(/C=C/C(=O)c2sc(-c3ccccc3)nc2C)cc1,–,"inconclusive: 0.126 µM [quencher, side channel, full curve, poor fit]"
Cc1cc(C)c2c(N)c3ccccc3nc2n1,–,"inconclusive: 7.94 µM [quencher, side channel, partial curve]"

# Reference: PubChem BioAssay AID2675 (National Center for Advancing Translational Sciences (NCATS), 2010)
